According to the supplement of paper PMC3334620:
In all, about 33,000 sequences were measured (“E-score (-0.5 to 0.5)”: median about -0.012, highest 2% from about 0.27 on). Some of the results follow.

Biological target: T1, Vhr1 (UniProt P40522)
T1 sequence: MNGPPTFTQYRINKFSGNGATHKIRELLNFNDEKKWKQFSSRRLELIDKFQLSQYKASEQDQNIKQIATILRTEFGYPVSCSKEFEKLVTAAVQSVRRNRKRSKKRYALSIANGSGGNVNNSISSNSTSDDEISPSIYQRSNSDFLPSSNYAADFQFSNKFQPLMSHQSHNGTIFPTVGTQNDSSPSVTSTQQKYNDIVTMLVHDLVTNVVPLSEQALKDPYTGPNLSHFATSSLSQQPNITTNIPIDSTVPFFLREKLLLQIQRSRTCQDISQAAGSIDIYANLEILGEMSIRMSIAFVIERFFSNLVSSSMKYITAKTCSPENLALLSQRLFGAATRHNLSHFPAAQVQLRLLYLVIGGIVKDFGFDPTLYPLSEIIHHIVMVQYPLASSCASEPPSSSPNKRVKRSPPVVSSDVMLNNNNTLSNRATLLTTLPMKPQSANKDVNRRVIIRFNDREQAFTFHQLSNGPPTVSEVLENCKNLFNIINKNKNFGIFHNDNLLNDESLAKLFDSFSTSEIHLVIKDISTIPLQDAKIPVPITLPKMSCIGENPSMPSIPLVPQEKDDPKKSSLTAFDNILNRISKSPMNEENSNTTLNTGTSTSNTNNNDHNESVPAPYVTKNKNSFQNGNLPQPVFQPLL
Assay: PBM E-score (8-mer binding enrichment) (E-score (-0.5 to 0.5)); higher = stronger / more preferred TF binding; most listed sequences are background and not binding sites
Settings: protein concentration: 200 nM; construct: GST-full length
How it was run: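 PURExpress in vitro transcription/translation supplied GST-tagged yeast transcription factors, either full-length or DNA-binding domain. Applied at about 100-200 nM to universal all-10-mer Agilent arrays double-stranded by primer extension, the bound protein was detected with fluorescent anti-GST. E-scores, modified Wilcoxon-Mann-Whitney statistics, were given by the Universal PBM Analysis Suite to ungapped eight-base words pooled with their reverse complements after masliner normalisation.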

Row | Sequence | PBM E-score
1 | CAAGTATG | 0.197
2 | TCGAGCGA | 0.00674
3 | CAAATCAA | 0.0775
4 | CCGCACAC | 0.203
5 | AGCCTCCC | -0.142
6 | ATACACTA | 0.213
7 | ATGTGGCG | 0.0435
8 | GCCCTCGC | -0.0563
9 | GTGTATAA | -0.13
10 | CCCGGGCC | -0.111
11 | CCGACTGA | -0.0635
12 | CCGACGCC | 0.043
13 | AATAGGGT | 0.164
14 | CACACTCA | 0.217
15 | CAACGTCG | 0.0725
16 | GACGCGGA | -0.0732
17 | ATGTGCTC | 0.17
18 | ATCCCATG | 0.19
19 | ATACACTC | 0.0393
20 | CTCAAGGC | -0.0567
21 | GTGAGGGA | -0.0444
22 | TAAGCACA | 0.139
23 | AATTCTGA | -0.0685
24 | GTCCTCAA | -0.123
25 | CGGGTCCC | -0.137

Row | Sequence | PBM E-score
26 | AGGAGAAC | -0.0673
27 | CGTTGTAC | 0.0671
28 | ATGGAGTA | 0.185
29 | ATCCAGCA | 0.00537
30 | CCGCATAC | 0.122
31 | GGTCAGCA | 0.15
32 | GCGTATAC | 0.131
33 | AAGCTCGA | 0.0263
34 | ACTGTTAC | 0.0454
35 | CAGTGAAA | -0.0161
36 | ATGTCTGA | 0.00358
37 | ATGTCGTG | -0.00889
38 | AGTTATAA | -0.144
39 | CTAATTCA | 0.00857
40 | CGCATGTA | 0.00809
41 | CGTACAAG | 0.0435
42 | GGTTTGGA | 0.0865
43 | CATATTAA | 0.0835
44 | ACAGCCGG | 0.216
45 | ACCAAGCA | 0.0753
46 | AGTTATGC | 0.0781
47 | ACCGCCTA | -0.0586
48 | ACAGCACC | 0.0656
49 | CCATTTTC | -0.0941
50 | GCGGGCCC | -0.0329

Row | Sequence | PBM E-score
51 | CCCTCTTC | -0.157
52 | ATTCCCAA | 0.033
53 | ACTGCTCA | 0.0795
54 | GGTCCTTA | -0.12
55 | AGATTCCG | 0.0316
56 | GAAAACCA | -0.055
57 | ATCGCATA | 0.0401
58 | ATGGGATA | 0.00589
59 | TGACTCAA | 0.468
60 | ATCCAAAT | 0.0439
61 | AGTTCCGC | -0.0148
62 | ACGAGGAT | -0.0091
63 | CTCCTTAC | -0.221
64 | AGCGTCCT | -0.0788
65 | GTTTTTCA | -0.102
66 | ACATTAAC | 0.234
67 | GTCCTCAC | 0.036
68 | CTCGTCTA | -0.159
69 | AAGTACAC | 0.086
70 | AAGCAATA | -0.0875
71 | ATAGGCCC | -0.0678
72 | AACGGCTA | -0.148
73 | GGCAGAAA | 0.122
74 | CGCTAGTC | -0.146
75 | ATTCAAGA | -0.0262

Row | Sequence | PBM E-score
76 | GACGAACA | -0.0986
77 | CAAAAGGA | -0.2
78 | CGCACATA | -0.0814
79 | AGAGAGCT | -0.272
80 | CCAGGCCG | 0.0428
81 | AGTTGGGG | 0.0375
82 | AGAAGGTG | 0.1
83 | AGTAGGAG | -0.0476
84 | GGGGTAAA | -0.139
85 | AGAAAGCT | -0.0857
86 | CCGCTAGA | -0.218
87 | GGGACTGA | -0.174
88 | CTGGATGA | -0.0299
89 | AGGCATCA | -0.181
90 | CGAAGAGA | -0.124
91 | ACGCCCAG | 0.0807
92 | CGCCGACC | -0.0628
93 | CCGCACCC | 0.118
94 | TCAGATAA | 0.0383
95 | AACAGTCC | 0.0181
96 | AGATCGCA | -0.0736
97 | AGGAAGCG | 0.0063
98 | ACGGACCT | 0.00876
99 | GGCGGGCA | 0.198
100 | GGTTATAC | -0.0144

Row | Sequence | PBM E-score
101 | CACGTCTA | 0.126
102 | CGGTGCGC | 0.198
103 | CACTGCTC | -0.0274
104 | AAGACACT | 0.0796
105 | AGGTCTGG | -0.0901
106 | ATATACCC | 0.204
107 | CGCGAGCG | -0.106
108 | ATGAGAAT | 0.0244
109 | CTATACAG | -0.0143
110 | CGCACGAG | -0.0371
111 | AGTTCTTA | -0.145
112 | ACACTCGG | 0.158
113 | GCTGGGAC | -0.0717
114 | ATACACTG | 0.19
115 | GACATACC | -0.0164
116 | GCACCCTA | -0.0666
117 | AATCCGTA | -0.133
118 | AATCTTTC | 0.00115
119 | GTATGAAC | 0.038
120 | AATCACTG | 0.374
121 | GGTTTCTA | -0.122
122 | CTGTGTTA | 0.169
123 | ATTATCCA | 0.0781
124 | GATTTAAC | -0.111
125 | CTACGGCA | -0.118

Row | Sequence | PBM E-score
126 | GTCGTTCA | -0.0227
127 | CCGGCCAA | -0.0889
128 | ATAGTTAC | 0.132
129 | ACAGGTCG | -0.106
130 | AACCAACC | 0.138
131 | AATTGTGG | 0.00128
132 | ATTAATCG | 0.253
133 | GGCTCTGA | 0.0033
134 | GTGGGGCA | 0.118
135 | ATCACTTA | -0.0248
136 | CTGTAGGC | -0.0958
137 | TCTCATCA | -0.131
138 | CACGTTAC | 0.0548
139 | CTTACTTA | -0.176
140 | GGTGTAAA | -0.105
141 | CTACACTA | 0.166
142 | CAGTGGAC | 0.0239
143 | CGGAGCAG | 0.069
144 | ATGCCTCA | -0.0848
145 | GCTGGCGA | -0.0575
146 | TAGTCGAA | 0.0212
147 | AGTACGAA | -0.0408
148 | CGCCAGCA | -0.107
149 | TATATGCA | 0.071
150 | GTAGTAGA | 0.0348

Row | Sequence | PBM E-score
151 | CAACAACA | 0.234
152 | CCTGCATC | -0.00559
153 | AATGCCAG | -0.154
154 | ATGCGTAG | -0.0265
155 | ACGATACT | -0.0712
156 | CGGCGAGA | -0.0125
157 | ATGCCACC | 0.126
158 | CTACATAC | 0.0864
159 | ATTATAGC | 0.0196
160 | CCCACCAA | 0.141
161 | AAGGCCCT | -0.164
162 | CTCAAAGC | -0.0228
163 | AGTCGCAA | 0.238
164 | ATTAATAG | 0.0496
165 | GAGAGCTC | -0.261
166 | AGATCCAG | 0.0668
167 | ATCAGTTC | 0.081
168 | AATCGCGT | 0.124
169 | CTCCACTA | 0.0341
170 | AGTTGGAA | -0.0358
171 | AATCGGTA | -0.119
172 | TCACCTAA | 0.085
173 | CATTCGCA | -0.0683
174 | GAATGTGA | -0.061
175 | TGGTCCAA | -0.0804

Row | Sequence | PBM E-score
176 | CTAGGGAG | 0.0102
177 | GACCTAAA | -0.213
178 | AGGTAGGA | -0.148
179 | GAAAGCAA | -0.122
180 | ACACGATA | -0.0343
181 | AGCGTACG | -0.135
182 | AGGGTCAT | -0.00303
183 | AACGTCGT | -0.104
184 | GTGTAGTA | 0.208
185 | CTGGCTGA | 0.143
186 | ACCTTAGC | 0.113
187 | CCGTAAGA | -0.167
188 | CTAGAACA | -0.0367
189 | AACCCCGA | -0.0129
190 | TGAGCGAA | 0.00769
191 | GGGCCCCC | -0.128
192 | AAACTGGA | -0.094
193 | CATTACAA | 0.0155
194 | TCAACCGA | -0.023
195 | CAGTATGG | 0.0483
196 | CGATCGTC | -0.0324
197 | CCACAGTC | 0.0789
198 | CAGCGTAA | -0.118
199 | AAACATAT | 0.164
200 | CCCGTCCC | 0.165

Row | Sequence | PBM E-score
201 | CGAGCATA | -0.036
202 | GTAACTGA | -0.0714
203 | CAAGGCTC | -0.196
204 | AAGTGCCA | -0.145
205 | GTTGTGGA | -0.00265
206 | CGAAAAAC | -0.0634
207 | GGATGCAA | -0.176
208 | AAACGTCG | -0.159
209 | AATTATGT | 0.0928
210 | GAACTGGC | -0.125
211 | CCGAATCG | 0.101
212 | AGACCACA | 0.268
213 | AGAAGAGC | -0.169
214 | ACTACGCG | 0.0604
215 | ATAGGGGC | -0.0513
216 | ACCGTTCC | 0.0141
217 | CCGTGAGC | -0.279
218 | AGAGACGA | -0.048
219 | GCAGTGGC | 0.0117
